{"source": "PubChem BioAssay AID445", "about": "(National Center for Advancing Translational Sciences (NCATS), 2006)", "note": "Out of some 110,000 compounds screened, about 40 (0.04%) were called active. Inconclusive means that the source gave no clear call. Such entries were picked first, then a sample of the others. Calls follow the shape of the dose curve; as a rule, active = well fitted curve in the direction sought with a large enough effect in the signal ratio (not every such curve was filed as active); inconclusive = small, poorly fitted or top-dose-only effect, or a change in a side signal; inactive = flat fitted curve, though single readings scatter; the % refers to the signal ratio. Potencies beside an inconclusive call are fits to weak or partial responses and may not hold up. Potency is read from the fitted curve at half-maximal effect.", "data": [{"test": "IkB Signaling;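 as to IkBa stabilization activation: 0% = basal untreated cells and 100% = reference inhibitor full response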", "conditions": "ABC-DLBCL IkBa-CBG/CBR dual luciferase ratio (green luciferase fused to IkBa over red control in OCI-Ly3 lymphoma cells), 4 h; IkBa stabilization activation: at 57.1 µM (top of the series), scaled: untreated 0%, proteasome inhibitor 100% unless noted", "summary_of_the_method": "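Curves were fitted separately to fusion (green), unfused (red) and ratio luminescence, then classed by r2, magnitude and activity. Cells: OCI-Ly3, 4 h compound plus doxycycline at 37C; 10 uM MG-132 defined full response.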", "values": [{"smiles": "COc1ccc(CCNC(=O)C2CCCN(S(=O)(=O)c3ccc4c(c3)oc(=O)n4C)C2)cc1OC", "note": "(centres undefined)", "IkBa stabilization activation": "inactive: 2.54%"}, {"smiles": "Cc1cc(=O)n2[nH]c(-c3ccccc3)cc2n1", "IkBa stabilization activation": "inactive: 2.02%"}, {"smiles": "COc1ccc(OC)c(NC(=O)C2C3CCC(O3)C2C(=O)O)c1", "note": "(centres undefined)", "Potency": "inconclusive: 25.1 µM [rising, single point]"}, {"smiles": "O=S(=O)(c1ccccc1)c1nc(-c2cccc(Cl)c2)oc1N1CCOCC1", "IkBa stabilization activation": "inconclusive: 6.4% [signal inhibitor]"}, {"smiles": "COC(=O)c1ccc(NC(=O)CSc2nc(=O)[nH]c3c2CCCC3)cc1", "IkBa stabilization activation": "inconclusive: 2.07% [signal inhibitor]"}, {"smiles": "Cc1noc(C)c1C(=O)OCC(=O)Nc1ccccc1C(=O)NC(C)c1ccccc1", "note": "(centres undefined)", "IkBa stabilization activation": "inconclusive: 3.66% [signal inhibitor]"}, {"smiles": "CN(C)c1ccc(C(CNC(=O)c2ccccc2)N2CCc3ccccc32)cc1", "note": "(centres undefined)", "Potency": "inconclusive: 25.1 µM [signal inhibitor, single point]"}, {"smiles": "COCC(=O)N1CCC2(CCN(Cc3ccc(C#N)cc3)CC2)CC1", "IkBa stabilization activation": "inactive: 1.18% [at 11.4 µM, scaled: untreated 0%, proteasome inhibitor 100%]"}, {"smiles": "Cc1onc(-c2ccccc2Cl)c1C(=O)Nc1ccc(-n2nncc2-c2ccco2)cc1", "IkBa stabilization activation": "inconclusive: 4.47% [signal inhibitor]"}, {"smiles": "CCC1=Nc2cc(C(=O)NCCCOC)ccc2Sc2ccc(Br)cc21", "Potency": "inconclusive: 15.8 µM [signal activator, partial curve]"}, {"smiles": "CC(C)CC(=O)Nc1cccc(-c2nc3ccccc3[nH]2)c1", "Potency": "inconclusive: 31.6 µM [signal inhibitor]"}, {"smiles": "CNC(=O)C1CCC(Cn2c(=O)c3sccc3n(CC(=O)NCc3ccccc3)c2=O)CC1", "note": "(centres undefined)", "IkBa stabilization activation": "inactive: 0.337%"}, {"smiles": "Cc1ccc(SCCNC(=O)CN(c2ccccc2)S(=O)(=O)N(C)C)cc1", "IkBa stabilization activation": "inconclusive: 0.0945% [signal inhibitor]"}, {"smiles": "Cc1ccc(Cl)cc1NC(=O)c1cnc(N2CCCCC2)c2ccccc12", "IkBa stabilization activation": "inconclusive: 1.91% [signal inhibitor]"}, {"smiles": "CCS(=O)(=O)N1CCCC(C(=O)NC2CCCCC2)C1", "note": "(centres undefined)", "IkBa stabilization activation": "inactive: -0.496%"}, {"smiles": "O=C(N[C@@H](Cc1ccccc1)C(=O)CCl)OCc1ccccc1", "Potency": "inconclusive: 10 µM [signal inhibitor, full curve, poor fit]"}, {"smiles": "COc1ccc(NC(=O)C(=O)NCCc2csc(-c3ccc(Cl)cc3)n2)cc1OC", "IkBa stabilization activation": "inconclusive: 0.164% [signal inhibitor]"}, {"smiles": "COc1ccccc1NC(=O)C(=O)NCC(c1ccc2c(c1)OCO2)N1CCN(C)CC1", "note": "(centres undefined)", "IkBa stabilization activation": "inconclusive: 15.4% [signal inhibitor]"}, {"smiles": "COC(=O)C1=CN(CC2CCCO2)C=C(C(=O)OC)C1c1cc(OC)c(OC)c(OC)c1", "note": "(centres undefined)", "IkBa stabilization activation": "inactive: 0.194%"}, {"smiles": "CCOc1cc2sc(N3CCC(C(=O)Nc4ccc(C)cc4C)CC3)nc2cc1Br", "IkBa stabilization activation": "inconclusive: 17.2% [signal inhibitor]"}, {"smiles": "COc1ccc(-c2nc3scc(CCNS(=O)(=O)c4ccc(C)cc4)n3n2)cc1", "IkBa stabilization activation": "inactive: 1.37%"}, {"smiles": "COc1ccc(S(=O)(=O)N(CC(=O)Nc2ccccc2Br)Cc2ccccc2)cc1", "IkBa stabilization activation": "inconclusive: 6.54% [signal inhibitor]"}, {"smiles": "CC(NC(=O)CC1Nc2ccccc2NC1=O)c1ccccc1", "note": "(centres undefined)", "IkBa stabilization activation": "inconclusive: 6.66% [signal inhibitor]"}, {"smiles": "C=CCn1c(SCC(=O)NCC2CCCO2)nc2scc(-c3ccco3)c2c1=O", "note": "(centres undefined)", "IkBa stabilization activation": "inactive: 2.19%"}, {"smiles": "CCN1CCN(CCCNC(=O)c2cnn(-c3ccc(C)cc3C)c2C2CCN(C(=O)OC(C)(C)C)CC2)CC1", "IkBa stabilization activation": "inactive: 1.54%"}, {"smiles": "O=S(=O)(c1ccc(Br)cc1)c1nnn2c1nc(N1CCOCC1)c1sccc12", "IkBa stabilization activation": "inconclusive: 0.537% [signal inhibitor]"}, {"smiles": "CCOc1cc(C(=O)OCc2cc(=O)n3nc(CC)sc3n2)cc(OCC)c1OCC", "IkBa stabilization activation": "inactive: -1.7%"}, {"smiles": "CC(C)C(C(=O)NCc1ccco1)N(C(=O)CNS(=O)(=O)c1ccc(Cl)cc1)C1CCCC1", "note": "(centres undefined)", "IkBa stabilization activation": "inconclusive: 1.91% [signal inhibitor]"}, {"smiles": "CCN1CCc2nc3sc(C(=O)Nc4cccc(Cl)c4C)c(N)c3cc2C1", "IkBa stabilization activation": "inconclusive: 5.76% [signal inhibitor]"}, {"smiles": "CC1CCC(C(=O)NC(C(=O)OCC(=O)c2ccccc2)C(C)C)CC1", "note": "(centres undefined)", "IkBa stabilization activation": "inconclusive: 5.49% [signal inhibitor]"}, {"smiles": "O=C(Nc1cccc(-c2nnn(CC(=O)N3CCc4ccccc4C3)n2)c1)C1CCC1", "IkBa stabilization activation": "inconclusive: 3.64% [signal inhibitor]"}, {"smiles": "COc1ccc(-c2noc(CCC(=O)N3CCN(c4cc(C)ccc4C)CC3)n2)cc1", "IkBa stabilization activation": "inconclusive: 5.71% [signal inhibitor]"}, {"smiles": "CCc1cnc2c(c1SCC(=O)c1ccccc1)c(=O)n(C)c(=O)n2C", "IkBa stabilization activation": "inconclusive: -1.95% [signal inhibitor]"}, {"smiles": "COc1cccc(-c2cn3nc4c(nc3n2)CCCC4)c1", "Potency": "inconclusive: 10 µM [signal inhibitor, partial curve]"}, {"smiles": "CCOc1sc2nc(C)n(CC(=O)Nc3cccc(C)c3)c(=O)c2c1C", "IkBa stabilization activation": "inactive: 3.07%"}, {"smiles": "COc1ccc(-c2ccc(NS(=O)(=O)c3ccc(OC)c(OC)c3)cc2)nn1", "IkBa stabilization activation": "inconclusive: -1.67% [signal inhibitor]"}, {"smiles": "COc1ccc(OCc2nc3ccccc3n2Cc2ccccc2Cl)cc1", "IkBa stabilization activation": "inconclusive: 7.39% [signal inhibitor]"}, {"smiles": "Cc1ccc(N(Cc2cccs2)C(=O)COc2cccc(C)c2)cc1", "IkBa stabilization activation": "inconclusive: 0.992% [signal inhibitor]"}, {"smiles": "CC(=O)c1ccc(NC(=O)Cn2c(=O)n(Cc3ccco3)c(=O)c3sc4ccccc4c32)cc1", "IkBa stabilization activation": "inconclusive: 1.95% [signal inhibitor]"}, {"smiles": "O=C1c2ccccc2NC(c2ccc3c(c2)OCO3)N1O", "note": "(centres undefined)", "IkBa stabilization activation": "inactive: -2.43%"}, {"smiles": "Cc1ccc(S(=O)(=O)N2CCN(C(=O)CCC(=O)NC3CCCc4ccccc43)CC2)cc1", "note": "(centres undefined)", "IkBa stabilization activation": "inconclusive: 1.35% [signal inhibitor]"}, {"smiles": "COc1ccc(C2=NC(C)(C)N(CC(=O)Nc3ccc(F)c(F)c3)C2=O)cc1", "IkBa stabilization activation": "inconclusive: 5.82% [signal inhibitor]"}, {"smiles": "CCN1CCN(c2cc(C)c3cc(NC(=O)c4cc(Cl)ccc4OC)ccc3n2)CC1", "IkBa stabilization activation": "inconclusive: -3.89% [signal inhibitor]"}, {"smiles": "C=CCNc1nc2c3ccccc3n(C(C)=O)c2s1", "Potency": "inconclusive: 39.8 µM [rising, single point]"}]}]}
